In all, about 410,000 compounds went through this assay and about 6,400 (1.6%) were called active. This list was built around the results that the source calls inconclusive (neither active nor inactive); the mix of calls is not that of the screen. Calls come from the whole dose curve; as a rule, active = well fitted inhibition curve with a large enough effect; inconclusive = small, poorly fitted or top-dose-only effect; inactive = no such curve, though single readings can be large or run the other way. No potency is given beside an inconclusive call; the fits are too rough.
Each molecule was assayed against Glucagon-like peptide 1 receptor (Homo sapiens) (UniProt P43220) (assay: qHTS of GLP-1 Receptor Inverse Agonists (Inhibition Mode)). Settings: HEK293 GLP-1R CRE-luciferase, luminescence, 24 h, GLP-1R form is constitutively active; activity change, negative = inhibition: at 38.3 µM (top of the series) unless noted.
UniProt P43220, sequence (P43220 whole entry, looked up): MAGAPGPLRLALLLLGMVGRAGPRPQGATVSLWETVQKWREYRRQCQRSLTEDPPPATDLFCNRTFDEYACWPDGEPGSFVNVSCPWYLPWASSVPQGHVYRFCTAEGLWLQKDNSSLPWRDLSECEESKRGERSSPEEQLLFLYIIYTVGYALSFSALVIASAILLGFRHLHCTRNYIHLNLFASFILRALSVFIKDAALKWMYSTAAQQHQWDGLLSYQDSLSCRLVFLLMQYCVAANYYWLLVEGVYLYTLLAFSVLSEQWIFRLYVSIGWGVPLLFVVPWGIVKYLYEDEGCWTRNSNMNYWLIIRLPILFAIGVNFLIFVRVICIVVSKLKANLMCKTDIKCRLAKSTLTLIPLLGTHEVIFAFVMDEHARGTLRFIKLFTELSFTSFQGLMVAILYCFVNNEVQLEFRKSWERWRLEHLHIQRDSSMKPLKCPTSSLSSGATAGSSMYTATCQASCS
In short: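 Seeding at 200 cells/uL, 12 h culture, 24 hr compound treatment, then luciferase reagent and a luminescence read; cells are HEK293 stably expressing a constitutively active GLP-1R plus cAMP-responsive luciferase.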
In the case of O=C(c1ccc2nc(N3CCOCC3)sc2c1)N1CCC(Cc2ccccc2)CC1, the Potency was inconclusive [inhibitor, partial curve, poor fit]. CCN1CCn2c3c(c4cccc(C)c42)CCCC31 (stereo unspecified) was tested, and the Potency was inconclusive [inhibitor, partial curve, poor fit]. In the case of COc1ccccc1CN1C[C@@H]2C[C@@H](C3=Cc4cc(Cl)ccc4OC3)N3CCC[C@@]23C1=O, the Potency was inconclusive [inhibitor, partial curve, poor fit]. In the case of Cc1cccc(C)c1NC(=O)C(c1ccncc1)n1c(=O)c(-c2cc3ccccc3[nH]2)nc2ccccc21 (stereo unspecified), the Potency was inconclusive [inhibitor, single point]. CCOC(=O)c1c(CSC(=N)N)n(C)c2cc(Br)c(OC(C)=O)cc12 was tested, and the “activity change, negative = inhibition” value was inactive: -18.2%. For CCOC(=O)c1c(-c2ccc(OC)cc2)oc2ccc(O)cc12, the activity change, negative = inhibition was inconclusive: -70.7% [inhibitor]. In the case of CCOc1ccc(/C=C/C(=O)N(CC)CC(=O)Nc2ccc3c(c2)OCCO3)cc1OCC, the “activity change, negative = inhibition” value was inactive: 4.71%. For CCc1ccc(C(=O)C[n+]2cccc3cc(OC)ccc32)cc1, the Potency was inconclusive [inhibitor, partial curve, poor fit]. With NC(CCc1ccccc1)c1csc(Nc2cnccn2)n1 (stereo unspecified) the Potency was inconclusive [inhibitor, partial curve, poor fit]. CC(=O)/C=C/n1c(=S)oc2ccccc21 was tested, and the Potency was inconclusive [inhibitor, single point]. In the case of O=C(NC1CCCc2ccccc21)c1cccc(S(=O)(=O)N2CCN(c3ccccc3)CC2)c1 (stereo unspecified), the Potency was inconclusive [inhibitor, single point]. Cc1ccc(C(=O)N/C(=C\c2ccc(-c3ccc(Br)cc3)o2)C(=O)NCCCN(C)C)cc1 was tested, and the Potency was inconclusive [inhibitor, full curve, poor fit]. With Cc1ccc(Cl)cc1N(CC(=O)NC1CCCC1)C(=O)c1csnn1 the Potency was inconclusive [inhibitor, partial curve, poor fit]. In the case of CC(C(=O)N1CCc2ccccc21)N1CCN(Cc2ccccc2)CC1 (stereo unspecified), the Potency was inconclusive [inhibitor, partial curve, poor fit]. CCOc1ccccc1NC(=O)C1CCCN1C(=O)OCc1ccccc1 (stereo unspecified) was tested, and the Potency was inconclusive [inhibitor, full curve, poor fit]. In the case of Cc1ccc(S(=O)(=O)N2C[C@@H](C)[C@]3(C2)[C@H](O)[C@H](OC(=O)NCc2ccccc2)C[C@H]2C(=O)N(c4ccccc4)C(=O)[C@H]23)cc1, the “activity change, negative = inhibition” value was inactive: -29.8%. With COc1ccc(F)cc1S(=O)(=O)Nc1cccc(-c2ccc(N3CCCCCC3)nn2)c1 the Potency was inconclusive [inhibitor, partial curve, poor fit]. Cc1cc(C)c(NC(=O)Cn2nnc(-c3ccccc3)n2)c(C)c1 was tested, and the “activity change, negative = inhibition” value was inactive: 19.1%. Cc1cccc(N2C(=O)CC(N3CCN(Cc4ccc(Cl)cc4)CC3)C2=O)c1 (stereo unspecified) was tested, and the Potency was inconclusive [inhibitor, partial curve, poor fit]. In the case of O=C(Cc1cccs1)N(Cc1ccco1)C1(C(=O)NC2CCCC2)CCCCC1, the Potency was inconclusive [inhibitor, single point]. For Cc1ccc(C(=O)c2ccccc2C(=O)OCC(=O)NC(C)(C)C)cc1, the Potency was inconclusive [inhibitor, single point]. For CCN(CC)C(=O)C1=C(C)N(Cc2ccc(F)cc2)C(=O)C(CC(=O)NCCN2CCOCC2)C1 (stereo unspecified), the “activity change, negative = inhibition” value was inactive: 17.7%. In the case of Cc1cccc(N2CCN(C(=S)c3ccc4c(c3)OCO4)CC2)c1, the Potency was active: 11.2 µM. For O=C(Cn1ccc2cc(S(=O)(=O)N3CCCCC3)ccc21)NCc1cccc(Cl)c1, the Potency was inconclusive [inhibitor, partial curve, poor fit]. For Cc1cc(C(C)c2ccccc2)c(O)c(CN2CCOCC2)c1C (stereo unspecified), the Potency was inconclusive [inhibitor, single point]. With O=C(COc1ccccc1Cl)N1CCc2ccccc2C1 the Potency was inconclusive [inhibitor, single point]. In the case of O=C(Nc1cccc(Cl)c1)OCc1cncs1, the “activity change, negative = inhibition” value was inactive: 43.9%. With CC(NC(=O)CN(c1ccc(Cl)cc1Cl)S(=O)(=O)c1ccccc1)c1ccccc1 (stereo unspecified) the Potency was active: 8.91 µM. With CC(CN(C)Cc1ccccc1)OC(=O)c1ccc2c(c1)OCCO2 (stereo unspecified) the Potency was inconclusive [inhibitor, partial curve]. With CCOC(=O)c1[nH]c2ccc(Br)cc2c1NC(=O)CCN1CCCC(C)(C)C1 the Potency was inconclusive [inhibitor, partial curve, poor fit]. With Cc1ccc(N2CC(C(=O)N(C)CC(=O)Nc3ccc(Cl)c(C(F)(F)F)c3)CC2=O)cc1 (stereo unspecified) the Potency was inconclusive [inhibitor, partial curve, poor fit]. With Cc1ccc(NC(=O)c2ccc(CSc3ccccn3)cc2)cc1 the Potency was inconclusive [inhibitor, single point]. CCN(CC)c1ccc(/C=N/NC(=O)c2ccco2)cc1 was tested, and the Potency was inconclusive [inhibitor, partial curve, poor fit]. With COc1cc(C2CC(=O)c3cnc(NC(C)=O)nc3C2)cc(OC)c1OC (stereo unspecified) the “activity change, negative = inhibition” value was inactive: 30.8%. COc1ccc(-c2c3c(nc4sc5c(=O)[nH]c(C)nc5c24)CCC3)cc1 was tested, and the “activity change, negative = inhibition” value was inactive: 82.9%. Cc1ccccc1C(=O)N(Cc1nc(-c2ccc(Cl)cc2)no1)C(C)C was tested, and the Potency was inconclusive [inhibitor, partial curve, poor fit]. CCOc1cccc2cc(C(=O)Oc3ccc(OC)cc3)c(=O)oc12 was tested, and the “activity change, negative = inhibition” value was inactive: 22.3%. In the case of O=C(NC1CCCc2ccccc21)c1ccccc1 (stereo unspecified), the Potency was inconclusive [inhibitor, single point]. For CS(=O)(=O)N(CC(=O)N1CCOCC1)c1ccccc1, the “activity change, negative = inhibition” value was inactive: 5.14%. CN1C(=O)/C(=C\C(=O)c2cccs2)c2ccccc21 was tested, and the Potency was inconclusive [inhibitor, partial curve, poor fit]. For CC(CNC(=O)CCc1nnc(CCC2CCCCC2)o1)c1ccccc1 (stereo unspecified), the Potency was inconclusive [inhibitor, single point].
% is set by controls: 0 for no effect and ±100 for the full control effect; potency is the fitted concentration of half-maximal effect; tags give direction and shape of the fitted curve.
Note: nearly all actives have a fitted effect of over 55% in size.
